Structures can show the parent of a compound that is named as a salt. Whole data set: some 2,800 compounds, median “cell viability relative to vehicle” near 0.98, cut for the lowest 2% near 0.45. The list shows a part of the results.
test system: NCI-H2228 alectinib-DTP; experiment: cell viability relative to vehicle (fraction of vehicle); NCI-H2228 is an ALK-positive lung cancer line and DTP means drug-tolerant persister; higher = less growth inhibition; settings: 100 nM; treatment time 6 days
How it was run: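 NCI-H2228 parental cells and drug-tolerant persister cells were plated in 384-well plates; the persisters had been generated with 1000 nM of a targeted drug over 13 days. One day later, the 3114-agent TargetMol anti-cancer compound library was added at 100 nM, with DMSO serving as vehicle. ATP was measured 6 days after that using the CellTiter-Glo 3D Cell Viability Assay. Values are cell viability expressed relative to vehicle-treated cells.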

SMILES | cell viability
Clc1ccc2c(NCCNc3ccnc4cc(Cl)ccc34)ccnc2c1 | 0.949
CN(C)c1ccc(C2Nc3ccc4ccccc4c3C3=C2C(=O)CC(C)(C)C3)cc1Br (stereo unspecified) [Glutaminase C-IN-1] | 0.965
COc1ccc(-c2oc3cc(OC)c(OC)c(O)c3c(=O)c2OC)cc1O [Vitexicarpin] | 1.09
CC(C)C(C(=O)O)N1C(=O)C(=Cc2ccc(Br)cc2)SC1=S (stereo unspecified) | 1.06
Nc1n[nH]c2cc(-c3ccc(=O)n(Cc4cccc(Cl)c4)c3)ccc12 | 0.954
O=C(Nc1cccc(Cl)c1)Nc1ncc(CCNc2ncnc3ccsc23)s1 [SNS-314 Mesylate] | 0.867
CNC(=O)c1ccc(N2C(=S)N(c3cnc(C#N)c(C(F)(F)F)c3)C(=O)C23CCC3)cc1F [Apalutamide] | 0.79
CCOC(=O)c1c(C)[nH]c(C=C2C(=O)Nc3ccccc32)c1C [VEGFR2 Kinase Inhibitor I] | 1.19
O=C(c1ccc(OCCN2CCCCC2)cc1)c1c(-c2ccc(O)cc2)sc2cc(O)ccc12 [Raloxifene hydrochloride] | 0.92
O=C1c2ccccc2-c2n[nH]c3cccc1c23 [Pyrazolanthrone] | 1
CO[C@H]1CC[C@H](N2C(=O)CNc3ncc(-c4ccc(C(C)(C)O)nc4)nc32)CC1 | 0.9
C[C@@]12CC[C@@H]3[C@@](CC[C@H]4[C@@]3(C)CCC[C@@]4(C)C(=O)O)(CC1=O)C2 [Isosteviol] | 1.03
NS(=O)(=O)c1cc2c(cc1C(F)(F)F)NC(Cc1ccccc1)NS2(=O)=O (stereo unspecified) [Bendroflumethiazide] | 0.992
COc1cc(C[C@H]2C(=O)OC[C@@H]2Cc2ccc(OC)c(OC)c2)ccc1O [Arctigenin] | 0.985
CN(C)[C@@H]1CCc2[nH]c3ccc(NC(=O)c4ccc(F)cc4)cc3c2C1 | 1.12
CNC(=O)c1ccccc1Sc1ccc2c(/C=C/c3ccccn3)n[nH]c2c1 [Axitinib] | 1.04
Cc1ccc(NC(=O)Nc2cc(C(F)(F)F)ccc2F)cc1Nc1ccc2c(c1)NC(=O)/C2=C\c1ccc[nH]1 | 0.945
C[C@H]1CNC(=O)c2cnn3ccc(nc23)N[C@H](C)c2cc(F)ccc2O1 | 0.904
CC(CN1c2ccccc2Sc2ccccc21)N(C)C (stereo unspecified) [Promethazine hydrochloride] | 0.988
CC(CN1c2ccccc2Sc2ccccc21)N(C)C (stereo unspecified) [Promethazine] | 1.18
FC(F)(F)c1ccccc1-c1nc(NCc2cccs2)c2ccccc2n1 | 0.951
COC1(c2sc3c(N4CCOCC4)nc(-c4cnc(N)nc4)nc3c2C)COC1 | 0.496
CCn1cc(C(=O)O)c(=O)c2cc(F)c(N3CCNCC3)cc21 [Norfloxacin] | 0.991
COc1cccc(OCCCN)c1-c1cc(Nc2cnc(C#N)cn2)n[nH]1 [Prexasertib dihydrochloride] | 0.602
Fc1ccc(-n2cc(CCCCN3CCC4(CC3)OCc3ccccc34)c3ccccc32)cc1 [Siramesine hydrochloride] | 1.05
COc1cc(N)c(Cl)cc1C(=O)NC1CCN(CCCOc2ccc(F)cc2)CC1OC (stereo unspecified) [Cisapride] | 1.03

SMILES | cell viability
CN(C)CCC(c1ccc(Cl)cc1)c1ccccn1 (stereo unspecified) [Chlorpheniramine maleate] | 0.927
CC(C)=CC[C@@H](OC(=O)C=C(C)C)C1=CC(=O)c2c(O)ccc(O)c2C1=O [Dimethylacrylshikonin] | 1.02
N=C1S/C(=C\c2ccc(-c3ccc4c(c3)C(=O)NC4=O)o2)C(=O)N1c1ccc(Br)cc1 [Bioymifi] | 1.05
COc1ccc(-c2coc3cc(O)cc(O)c3c2=O)cc1 [Biochanin A] | 1.15
O=S(=O)(NCCNC/C=C/c1ccc(Br)cc1)c1cccc2cnccc12 | 0.981
NS(=O)(=O)NCCNc1nonc1/C(=N/O)Nc1ccc(F)c(Br)c1 [Epacadostat] | 1.06
Oc1cccc(O)c1O [Pyrogallol] | 1.13
COC1=CC(=O)C[C@@H](C)[C@]12Oc1c(Cl)c(OC)cc(OC)c1C2=O [Griseofulvin] | 0.912
CCC(=O)NCC[C@@H]1CCc2ccc3c(c21)CCO3 [Ramelteon] | 0.857
CC(C)=CCC[C@](C)(O[C@@H]1O[C@H](CO[C@@H]2O[C@H](CO)[C@@H](O)[C@H](O)[C@H]2O)[C@@H](O)[C@H](O)[C@H]1O)[C@H]1CC[C@]2(C)[C@@H]1[C@H](O)C[C@@H]1[C@@]3(C)CC[C@H](O[C@@H]4O[C@H](CO)[C@@H](O)[C@H](O)[C@H]4O)C(C)(C)[C@@H]3CC[C@]12C [Gypenoside XVII] | 0.992
CC(C)(C)c1cc(/C=C(\C#N)C(N)=S)cc(C(C)(C)C)c1O [Tyrphostin AG 879] | 1.09
CC[C@H](Nc1ncnc2[nH]cnc12)c1nc2cccc(F)c2c(=O)n1-c1ccccc1 [Idelalisib] | 1
COc1cc2c[n+](C)c3c4cc5c(cc4ccc3c2cc1OC)OCO5 [Nitidine chloride] | 1.05
O=CN1CC/C(=C/c2ccc3c(c2)OCO3)C1=O | 0.979
NCCC(=O)O [beta-Alanine] | 1.09
CC(C)c1noc(N2CCC(COc3ccc(-c4ccc(S(C)(=O)=O)cc4)nc3)CC2)n1 | 0.874
O=C(NC1CCNCC1)c1n[nH]cc1NC(=O)c1c(Cl)cccc1Cl | 1.14
COC[C@@H](c1ccc(C(F)(F)F)cc1)N1CCN(C2(C)CCN(C(=O)c3c(C)ncnc3C)CC2)C[C@@H]1C [Vicriviroc maleate] | 1.13
CCCC(CCC)C(=O)O [Valproic acid sodium salt] | 0.747
CN(C)[C@@H](CCOc1cccc2ccccc12)c1ccccc1 [Dapoxetine HCl] | 1.25
CO[C@H]1C[C@@H]2CC[C@@H](C)[C@@](O)(O2)C(=O)C(=O)N2CCCC[C@H]2C(=O)O[C@H]([C@H](C)C[C@@H]2CC[C@@H](OP(C)(C)=O)[C@H](OC)C2)CC(=O)[C@H](C)/C=C(\C)[C@@H](O)[C@@H](OC)C(=O)[C@H](C)C[C@H](C)/C=C/C=C/C=C/1C [Ridaforolimus] | 0.918
CCCCC[C@H](O)CC(=O)CCc1ccc(O)c(OC)c1 [6-Gingerol] | 0.904
CC(C)(C)NCC(O)c1ccc(O)c(CO)c1 (stereo unspecified) [Salbutamol] | 0.987
CCS(=O)(=O)N1CCC([C@@H](C)n2c(C)c(C(=O)NCc3c(OC)cc(C)[nH]c3=O)c3ccccc32)CC1 | 1.1
Fc1ccc(CNc2ncnc3ccc(F)cc23)cc1 [Spautin-1] | 1.17
O=S(=O)(N=Cc1c(O)ccc2ccccc12)c1cccs1 | 1.01

SMILES | cell viability
CC[C@@H]1C(=O)N(C)c2cnc(Nc3ccc(C(=O)NC4CCN(C)CC4)cc3OC)nc2N1C1CCCC1 | 0.585
O=C1CCc2c(ccc3ccccc23)O1 [Splitomicin] | 1.01
O=C(NNS(=O)(=O)c1ccccc1F)c1cc(F)cc(-c2ccccn2)c1 | 0.916
CCN1CCN(c2cc(-c3ccc(F)cc3)c3c(n2)CCCCCC3)CC1 [Blonanserin] | 1.03
COc1cc(N(C)C)cc(CN(C)CCc2ccc([N+](=O)[O-])cc2)c1O [CDC25 Phosphatase Inhibitor I] | 1.07
O=C(O)c1ccc(S(=O)(=O)N(Cc2ccc(OC(F)(F)F)cc2)c2ncc(C(F)(F)F)cc2Cl)cc1 | 0.969
OC[C@H]1O[C@@H](Oc2cc3c(O)cc(O)cc3[o+]c2-c2ccc(O)c(O)c2)[C@H](O)[C@@H](O)[C@@H]1O [Kuromanin chloride] | 0.964
COc1cc2ncnc(Nc3cccc(O)c3)c2cc1OC | 0.849
COC(=O)Nc1nc2cc(C(=O)c3ccc(F)cc3)ccc2[nH]1 [Flubendazole] | 1.16
COc1ccc(COc2cc3oc(=O)c4cc(C(C)O)ccc4c3cc2OC)cc1 (stereo unspecified) [Palomid 529] | 0.906
COC1=C(OC)C(=O)C(C/C=C(\C)CC/C=C(\C)CC/C=C(\C)CC/C=C(\C)CC/C=C(\C)CC/C=C(\C)CC/C=C(\C)CC/C=C(\C)CC/C=C(\C)CCC=C(C)C)=C(C)C1=O [Coenzyme Q10] | 0.948
NC1=N[C@@]2(c3cc(NC(=O)c4ccc(F)cn4)ccc3F)COC[C@H]2CS1 | 1.1
O=C(O)C1=CO[C@@H](O[C@@H]2O[C@H](CO)[C@@H](O)[C@H](O)[C@H]2O)[C@H]2[C@@H]1C=C[C@]2(O)CO [Monotropein] | 1.07
COc1ccc2cc1Oc1ccc(cc1)C[C@H]1c3c(cc4c(c3Oc3cc5c(cc3OC)CCN(C)[C@@H]5C2)OCO4)CCN1C [Cepharanthine] | 0.999
NCCS [2-Aminoethanethiol] | 1.03
CN1C(C(=O)Nc2ccccn2)=C(O)c2ccccc2S1(=O)=O [Piroxicam] | 1.02
CN1C(N)=N[C@](C)(c2cc(NC(=O)c3ccc(F)cn3)ccc2F)CS1(=O)=O [Verubecestat] | 0.969
COc1c(C)c2c(c(O)c1C/C=C(\C)CCC(=O)OCCN1CCOCC1)C(=O)OC2 [Mycophenolate Mofetil] | 1.01
N#CCCCSC(=N)N [Kevetrin hydrochloride] | 0.938
COc1cc(C(=O)NC2CCN(C)CC2)ccc1Nc1ncc2c(n1)N(C1CCCC1)CC(F)(F)C(=O)N2C | 0.729
O=C(NCc1cccc(O)c1)Nc1nc(-c2ccncc2)cs1 | 1.21
O=C1CN(CCN2CC(=O)N(CN3CCOCC3)C(=O)C2)CC(=O)N1CN1CCOCC1 [Bimolane] | 1.1
Cc1ccc(S(=O)(=O)N2CCCC2c2ccc(F)cc2)cc1 (stereo unspecified) | 0.904
C[C@H]1COC2(CCN(c3nc(=O)c4cc(C(F)(F)F)cc([N+](=O)[O-])c4s3)CC2)O1 (racemic) [BTZ043 Racemate] | 1.06
